Results reported in the RNAGym collection of RNA variant scans (doi:10.7554/elife.90254).
Read counts are not given, so values of variants with three or more changes are uncertain.

B1: OR4K15 (parent)
chain: GUUAACGGUCAUAGGCCAUGGAAACUAGGAGCACCAUUUCGCUGCCAGUGAAGAAAUGAACAAAGAAAAUCUGGGCCAGGCAGGCAUCAAAAGAAAUAGUCUUGCGCUCAACCAGAAAGUCUGUAAUCAUUUUAAGGGUA

Variants of: B1
Experiment: self-cleavage, relative activity (ratio to wild type); higher = more cleavage; in vitro, sequencing; the parent is a self-cleaving ribozyme

| Variant | self-cleavage |
| --- | --- |
| C10U A11G U43A U57A U122C | 0.26 |
| A52G A110U A134G | 1.06 |
| A23G A68G U103C | 1.4 |
| U26C U49C A56G A59G U103C A118G | 0.08 |
| G8A U39C A62G C128U | 1.23 |
| A62U A91G A125G | 0 |
| A67G U72G A91G U130C | 0.07 |
| A36U A47U U57C U100C | 1.83 |
| A23G U49C A51G U70A U100C | 1.51 |
| U19C A60G A114U | 0.05 |
| A59U A67G G75C A129G | 0.07 |
| U19C A67G U102C | 1.7 |
| G1C A24G U70C | 0.99 |
| U9A U19C A24G A116G | 0.64 |
| A86U A95G A117G | 2.51 |
| U3A A59G A60G | 1.3 |
| A67G A94G A126G U139C | 1.12 |
| A54G A89G A91G | 1.08 |
| U43A A52G U102A A110U | 0.91 |
| U2C U43A A66G U108C | 0.01 |
| A54G A82U A116G | 0.04 |
| G15A A47U U49A A62G A86C U108C A116G A129U | 0 |
| A52G A63G G123A | 1.28 |
| A24G A27G A55G | 0.71 |

| Variant | self-cleavage |
| --- | --- |
| A56G A63G A114G U131C | 0.62 |
| A55U G83A A92G A114G | 0.82 |
| A60U A64G U87C | 1.35 |
| A11G A30G A52G A55G G79A | 0.18 |
| A56G A63G A118G A126G | 1.3 |
| A33G U37C A64G U72A A82G | 0.04 |
| G7A A51G A63G U87A | 1.75 |
| A23G A78G A129U U133G | 0.18 |
| G7A U49C A51G A59G A126G U131C | 0.07 |
| U70C A90U A98G | 0.48 |
| A4G A13G A69G | 0.99 |
| G1U G29U U102C | 1.86 |
| A33U A68G U108C | 0.01 |
| A24G A64G A117G | 1.07 |
| U3C A68C A90G | 1.03 |
| A24G A52U U130C | 1.06 |
| A47G A59G G75A A90G A116G U120A | 0.02 |
| U26C A89G U122A U132C | 0.72 |
| A51G A59G A92G U124C U133C | 1 |
| A98G U127C A134G | 0.22 |
| U39C A56G A126G | 1.1 |
| U19C U26C A69G A91C | 1.43 |
| A23G A51U A67G U102C | 2.07 |
| U70C A86U U120A A129G | 0.37 |

| Variant | self-cleavage |
| --- | --- |
| U3A U39C A68G | 1.15 |
| A33G A54G U72A A91U U122C | 0.07 |
| U9C A66U A86G A95U | 0.56 |
| A67G A94G A110G A135G | 0.04 |
| A62G C81U A114U U127C | 0.03 |
| A47G A56G A59G | 0.88 |
| A67U G80A A82C U87C | 0.08 |
| A56C A60G A63U U72C A134G | 0.13 |
| A66G A68G U103C | 0.31 |
| A36U A67G U103C | 0.92 |
| A30G A60G A117G | 1.33 |
| A18U G41A A90U A118G U131C | 0.5 |
| A59G U87A U130C | 2 |
| A11U A82U U102A | 0.91 |
| A68G U102C A114G | 0.39 |
| U9C A22C C40U C121U U127C | 0.75 |
| U2A U9C A78U U127C U133C | 0.33 |
| A22G U57C A62G A96G A114U | 0.1 |
| U43C A90G U132C | 0.97 |
| A5C C17A A78G | 0.6 |
| U57A G74A A111G U132C | 0.01 |
| U2C U38C A51G U130C | 1.47 |
| A4G A11G U38C A52G A56G A66G A90G A95G | 1.23 |
| U37C U49C U87C | 2.08 |

| Variant | self-cleavage |
| --- | --- |
| A51U A68G U72G A89U | 0.06 |
| C34G U87C A95G U127C | 0.69 |
| U39C A67U A116G | 1.68 |
| U37C U100C U124A | 1.12 |
| A11G A54U C128U | 0.97 |
| A18G A33U A67G U100C | 2.53 |
| C17U A111G U122G A135U | 0.02 |
| U57A A129G U130C | 1.33 |
| A22U A27U A90G A94G A129C | 0.56 |
| A36G A52G U120A | 2.38 |
| A51C A69G A117U | 0.88 |
| U39A A116G A117U A126G | 0.56 |
| G84U U122C U131C | 0.15 |
| U43C U87C C113U A125G | 0 |
| U19C U38C A55G A67G | 1.09 |
| U37C U102A U130C | 1.23 |
| A13G A91G U108C U130C | 0.02 |
| U12C U26C A67G C128A | 0.41 |
| G15U U38C U39C A67G U103C U132C | 1.05 |
| A11G A22C A47G A54G A59U | 0.51 |
| A11G A63G A94U U122A A125G | 0.45 |
| A24C A68G A111G U130C | 0 |
| A52G U87C U100C | 2.91 |
| A23U A92G A96G | 0.86 |

| Variant | self-cleavage |
| --- | --- |
| A47G U72A C105U G123C | 0.01 |
| A18U U26C A86G U108C A117G U130C U139A A140G | 0 |
| C6U U38A U122C | 0.66 |
| A86G U87C A95G | 1.33 |
| A11U U19C A118G | 1.03 |
| A30G A94U U97C G106U G138U | 0.01 |
| U38C A59G G123A | 2.03 |
| A27G A69G A116G A118G | 0.81 |
| A36G A55U A60G U100C U108C | 0.04 |
| A18U A23G A52G | 0.96 |
| A23G U43C U72C A94G A111G | 0.05 |
| A30G A33G A56G A62G A92U U131C | 0.93 |
| A24G A27U A55G A62G U97C | 0.43 |
| U38C A56G A95G | 2.22 |
| A30G A47U A78U A111G U133C A134U | 0.01 |
| C42U U103C U127C | 0.84 |
| A56G G74A U132C | 0.21 |
| U26A G41A U43C A69G A117G | 1.38 |
| A22G A51G U87C A117G | 2.41 |
| A52G A68G A82U | 0.16 |
| C45U U87A U102C | 1.97 |
| U38C U72A U132C | 0.29 |
| A18C A94U G99A A116G | 0.2 |
| G21U A47G A64G A66U A95G G99A A118G | 0.21 |

| Variant | self-cleavage |
| --- | --- |
| U49C U57C A135G | 0.94 |
| A11G A23G A24G U43C | 1.04 |
| A47G U49A A111G | 0.05 |
| A23U A30G A56G A94G | 0.16 |
| A51G A64G U70C U97C | 0.45 |
| A23G U49C A55G A78U | 0.24 |
| A22G A54G A90G | 0.75 |
| A24G A60C A66G U102G | 0.76 |
| A82G U87A A111G A117G | 0 |
| U39C U72C A116G | 0.23 |
| A22G A33U A47G A66G G83C | 0.34 |
| U2C U9C C10U U26A A114C | 0.03 |
| U19C U38C A51U A96G U97C A129U | 0.14 |
| A18U A52G A94U C107A A140U | 0.02 |
| A11G A59G A62G A91G | 0.19 |
| A22G A54C A94U A96G | 1.77 |
| U26C A60G A63U A111G | 0.05 |
| U12C A23G A63G A78G A94G A135U | 0.69 |
| A5G A51G A67G | 0.6 |
| U43C U72C A94G U108C | 0.01 |
| A5G C10A U39A A63G | 0.86 |
| A78U A96G A118G | 0.12 |
| U9C A62G G83A | 1.3 |
| U38C A51G A116G A117G U122C | 0.07 |

| Variant | self-cleavage |
| --- | --- |
| A24G A30G A64C A95G A116G | 0.66 |
| U87C A89U U122C U130G | 0.32 |
| A24G A60G U124C | 0.67 |
| U49C A54G A111G U132C | 0.02 |
| A22G U39C A98G | 0.91 |
| G21A A62G A92G C105U | 0.05 |
| U57A A68G U87C A110G | 0.11 |
| A22U A51U U72C U139C | 0.28 |
| U39C A51G A78G A91C A92U | 0.14 |
| A63G A118U U130C | 0.33 |
| U38C A55U A68G A126G | 0.7 |
| U9A U70C U100C | 1.34 |
| U12C A51G U102C | 1.05 |
| A5U U9C A114U | 0.11 |
| A11G A47G U49C U131C | 0.28 |
| C46A U49A A67G U127C | 0.43 |
| A18U A27G A52G A86U A91G U127C | 0.59 |
| U9C A92G A96U U131C | 0.31 |
| A33U U38C U43C A60G A69G G73A | 0.14 |
| U2C A5G U9C A23G A51G | 0.87 |
| U38A U49C U87C U103C | 0.85 |
| A68G U87C U122C A140U | 0.64 |
| A23G A47U U108A | 0.03 |
